Measured values reported in US12269793B2, “Affinity illudofulvene conjugates” (AF Chemicals, LLC, priority 2019, dated 2025).

System: NCI 60 cell line panel
Experiment: NCI DTP 60 cell line screen assay
Settings: result in words

## CC(=O)O[C@@H]1C2=C(C)C3(CC3)[C@@](C)(O)C(=O)C2=C[C@@]1(C)CO [Analog 371]
  potency at lysing the NCI 60 tumor cell line: most potent
